The source gives no read counts; variants with many changes may rest on few reads.
B1: LINE1-mini (parent)
chain: GGCAGAGCUCAACACAGCGUGGCAAAGUGGCUGUGGCUAGACUGCC

Variants of: B1
Assay: self-cleavage, relative activity (ratio to wild type); higher = more cleavage; in vitro, sequencing; the parent is a self-cleaving ribozyme

Row | Variant | self-cleavage
1 | GGCAGAGCUCCACACAGCGUGGCAAAGUGGCUGUGGCUAGAGUGUC | 0.01
2 | GGCAGAGCUCCACACAGCGUGGCAAAGUGGCUGUCGUUAGACUGCC | 0.01
3 | GGCAGAGCUCCACACAGCGUGGCAAAGUGGCUGUGUCUAGACUACC | 0.02
4 | GGCAGAGCUCCACACAGGGUGGCAAAGUGGUUGUCGCUAGACUGCC | 0.01
5 | GGCAGAGCUCCACACAUCGUGACAAAGUGGCUGUGGCUAGACUGCC | 0.03
6 | GGCAGAGCUCCACACAGCGUGGCAAAUUGGCUGUGGCUACACUGCU | 0.02
7 | GGCAGAGCUCCACACUGCGGGGCAAAGUGGCUGUGGCUAGACUGCC | 0.01
8 | GGCAGAGCUCCACACAGCGUGGCAAAGUGGCUAUGGCUAGAGUGCC | 0
9 | GGCAGAGCUCCACACAGCGUUGCAAAGCGGCUGUGGCUAGAUUGCC | 0.1
10 | GGCAGAGCUCCCCACGGCGUGGCAAAGUGGCUGUGGCUAGACUGCC | 0.02
11 | GGCAGAGCUCCACACAGCGAGGCAAAUUGGCUGUGGCUGGACUGCC | 0.02
12 | GGCAGAGCUCCACAAAGCGGGGCAAAGUGGCUGUGGCUAGACUGCC | 0.02
13 | GGCAGAGCUCCACUCAGCGUGGCAAAGUGGUUGUGGCUAGACUGCC | 0.01
14 | GGCAGAGCUCCACACAGCGUGGCAAAGUGUCUGUGACUAGACUGCC | 0.03
15 | GGCAGAGCUCCACACAGCGUGCCAAAAUGUCUGUGGCUACACUGCC | 0
16 | GGCAGAGCUUAACACAGCGUGGCAAAGCGGCUGUGGCUUGACUGCC | 0.38
17 | GGCAGAGCUCCACGCAGCGUGGCAAAGUGGUUGUGGCUAGACUGCC | 0.05
18 | GGCAGAGCUCCACACAGCGUGGCAAAGUGGCUGCGCCUAGACUGCC | 0.01
19 | GGCAGAGCUCCACACAGCGUGGCACAGUGGCUGUGGCUAGGCUGCC | 0

Row | Variant | self-cleavage
20 | GGCAGAGCUCCACACAGCGUGGCAAAGUGGCUGUGGUUAGACUGCU | 0
21 | GGCAGAGCUCCACACGGCGUGGCAUAGUGGCUGUGGCAAGACUGAC | 0
22 | GGCAGAGCUCCACACAGCGUGGUAAAGUGGCUGUGGCUAUACAGCC | 0
23 | GGCAGAGCUCCACACAGCGUGGCAAAGUGGUUGCGGCUAGACUGCC | 0.01
24 | GGCAGAGCUCCACACAGUGUGGUAAAGUGGCUGUGGCUAGACUGCC | 0.02
25 | GGCAGAGCUCCACAGAGCAUGGCAAAGUGGCUGUGGCUAGACUGCC | 0.02
26 | GGCAGAGCUCCACACAGCGUGGGAAAGUGGCUCUAGCUAGACUUCC | 0.01
27 | GGCAGAGCUCCACACACCUUGGCAAAGUGGCUGUGGCUGGACUGCC | 0.01
28 | GGCAGAGCUCCACACAGCGUGGCUAAGUUGCUGUGGGUAGACUGCC | 0.02
29 | GGCAGAGCUCCACACAGCGUGGCAAAGUGGCUGUGGAUACACUGCC | 0.04
30 | GGCAGAGCUCCACAAAGCGUGGCAAAGUAGCUGUGGCUAGACUGCC | 0.01
31 | GGCAGAGCUCCACACAGCGUGGCAAAGUGGCUGGGGCGAGACUGCC | 0
32 | GGCAGAGCUCCCUACAGCGUGGCAAAGUGACUGUGGCUAGACUGCC | 0.02
33 | GGCAGAGCUCCACACAGCGAGGCAAAGUGGCUGUCGCUAGACUGCC | 0.02
34 | GGCAGAGCUCCACACAGCGUGGCAAAGUGGCUGUGCCUAGAGUGCC | 0
35 | GGCAGAGCUCCGCACAGCGUGGCAAUGUGGCUGUGGCUAGACUGCC | 0
36 | GGCAGAGCUCCACACAGCCUGACAAAGUGUCUGUGGCUAGACUGCC | 0.06
37 | GGCAGAGCUCCACAUAGCGAGGCAAAAUGGCUGUGGCUGGACUGCC | 0.01
38 | GGCAGAGCUCCACAUAGCGUGGCAAAGUGGUUGUGGCUGGACUGGC | 0.01

Row | Variant | self-cleavage
39 | GGCAGAGCUCCACACAGCGUGGCAAAGUGGCUAUGGCUAGUCUGCC | 0.02
40 | GGCAGAGCUCCACCCAGAGUGGCAAAGUGGCUGUGGCUAGACUGCC | 0.02
41 | GGCAGAGCUCCCCACAGCGUGGCAAAGUGGCUGUGGCUAUACUACC | 0.01
42 | GGCAGAGCUCCACUCACCGUGGCAAAGUGGCUGUGGCUAGACUGCA | 0.01
43 | GGCAGAGCUCCAUACAGCGUGGCAAAUUGGCUGUGGCUAGACUGCC | 0.04
44 | GGCAGAGCUCCACACAGCCUGGAAAAGUGGCUGUGGCUUGGCUGCU | 0.03
45 | GGCAGAGCUCCACACAGCGAGGCAAAGUGGCUGUGGCUAGACUUCC | 0.01
46 | GGCAGAGCUCCACACAGCGUUGCAAAAUGGCUUUGGCUAGACUGCC | 0.02
47 | GGCAGAGCUCCACACAGCGUGGCGAAGUGGAUGUGGCUAGAGUGCC | 0.01
48 | GGCAGAGCUCCACACAGCUUGGCAAAGUGGCUGUGGCGAGACUGCC | 0.03
49 | GGCAGAGCUUAACACAGCGUGGCAAAGUGGCUGUGGCACGACUGCC | 0.08
50 | GGCAGAGCUUAACACAGCGGGGCAAAGUGGCUGUGGCUAGCUUGGC | 0.01
51 | GGCAGAGCUCGGCACAGCGUGGCAAAGUGUCUGUGGCUAGACUGCC | 0.02
52 | GGCAGAGCUUAACACAGCGUGGCAAAGUGGCCGUGCCUAGACUGCC | 0.01
53 | GGCAGAGCUCCACACAGCGUGGCAAAGUGGCUGUGUCUAGACUGCA | 0
54 | GGCAGAGCUCCACACAGCGUGGCAAACUGGCUGUGGCUAGACUUCC | 0.03
55 | GGCAGAGCUCCACACAGCGUGGCAAAGUGGCUGUGGUUAGAGUGCC | 0
56 | GGCAGAGCUCCACACAUAGUGGCAAAGUGGCUGUGGCUAGACUGCC | 0.04
